# Laboratory results as given in the antibiotic and cytotoxicity screens of Wong et al. (2023).
# Some of the results follow.
# Columns and labels:
# [1] = system: HSkMC (human skeletal muscle cells); assay: cytotoxicity call (relative viability < 0.9); details: 10 µM
# [2] = system: HepG2; assay: cytotoxicity call (relative viability < 0.9); details: 10 µM
# [3] = system: S. aureus RN4220; assay: growth inhibition call (relative growth <= 0.2); details: 50 µM
SMILES,cytotoxicity call [1],cytotoxicity call [2],growth inhibition call [3]
CN1C(=O)c2cc(NC(=O)c3cscn3)ccc2OC[C@@H]2O[C@@H](CC(=O)N3CCOCC3)CC[C@@H]21,inactive,inactive,inactive
CC(C)[Si](C#C[Si](C(C)C)(C(C)C)C(C)C)(O[C@H](C)c1cn([C@H](C)c2ccccc2)nn1)C(C)C,inactive,inactive,inactive
C[C@@H]1CCCCO[C@@H](CN(C)C(=O)CCC(F)(F)F)[C@H](C)CN([C@@H](C)CO)C(=O)c2cc(NS(=O)(=O)c3ccc(Cl)cc3)ccc2O1,inactive,inactive,inactive
CC(=N)NCCCC[C@@H](N)C(=O)O,inactive,inactive,inactive
C[C@H]1CN([C@@H](C)CO)C(=O)Cc2cc(NC(=O)Nc3ccc4c(c3)OCO4)ccc2O[C@H]1CN(C)C(=O)Nc1ccc(C(F)(F)F)cc1,inactive,active,inactive
COc1ccc(S(=O)(=O)N(C)C[C@@H]2OCCCC[C@H](C)Oc3ccc(NC(=O)Nc4c(C)noc4C)cc3C(=O)N([C@H](C)CO)C[C@@H]2C)cc1,inactive,inactive,inactive
C[C@@H]1CN([C@@H](C)CO)C(=O)c2cc(NC(=O)CCC(F)(F)F)ccc2O[C@@H]1CN(C)Cc1ccc(Oc2ccccc2)cc1,inactive,active,inactive
COc1ccc(S(=O)(=O)Nc2cccc3c2O[C@H](CN(C)C(=O)Nc2cccc4ccccc24)[C@H](C)CN([C@H](C)CO)C3=O)cc1,inactive,inactive,inactive
COc1ccc(CN(C)C[C@@H]2Oc3ccc(NS(=O)(=O)c4c(C)noc4C)cc3CC(=O)N([C@H](C)CO)C[C@@H]2C)cc1,inactive,inactive,inactive
